By IC50 is meant the dose at which the fit gives 50% viability; a fit beyond the top or the lowest dose is shown as a bound at that dose. AUC is the area under the same curve over the 256-fold range up to the top dose, as a fraction; the more sensitive the line, the further below 1. For some of these results: The top dose, if marked as inferred, comes from the curve model; the source does not state it.
Key:
Assay in all cases: Viability of human cancer cell lines after 72 h of drug (GDSC screen)
[1] = compound: CN(Cc1cnc2nc(N)nc(N)c2n1)c1ccc(C(=O)N[C@@H](CCC(=O)O)C(=O)O)cc1 [Methotrexate]; conditions: top dose 0.2 µM
Procedure: (§1)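 Human cancer cell lines in 384-well plates, medium with 10% serum, drug for 72 h over a 256-fold dose range (nine 2-fold or five 4-fold steps up to the top dose). Adherent lines were fixed and stained with the nucleic acid dye Syto60, suspension lines read with resazurin; signal relative to control wells, capped at 0 and 100%. One two-parameter sigmoid per drug and line, fitted in a mixed model over all curves with the slope shared within a line.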

[2] = compound: CCc1c2c(nc3ccc(O)cc13)-c1cc3c(c(=O)n1C2)COC(=O)[C@]3(O)CC [SN-38]; conditions: top dose 0.05 µM; top dose inferred
Procedure: as §1

[3] = compound: CC(C)(C)c1nc(-c2cccc(NS(=O)(=O)c3c(F)cccc3F)c2F)c(-c2ccnc(N)n2)s1 [Dabrafenib]; conditions: top dose 10 µM
Procedure: as §1

[4] = compound: CNC(=O)c1ccccc1Sc1ccc2c(/C=C/c3ccccn3)n[nH]c2c1 [Axitinib]; conditions: top dose 2 µM
Procedure: as §1

Row | Cell Line | AUC [1] | IC50 [1] [nM] | AUC [2] | IC50 [2] [nM] | AUC [3] | IC50 [3] [nM] | AUC [4] | IC50 [4] [nM]
1 | 22RV1 (prostate, adherent) | 0.915 | > 200 | 0.644 | 8.66 | 0.93 | > 10000 | 0.915 | > 2000
2 | 23132-87 (stomach, adherent) | 0.879 | > 200 | 0.61 | 6.35 | 0.982 | > 10000 | 0.982 | > 2000
3 | A101D (melanoma, adherent) | 0.938 | > 200 | 0.718 | 15.2 | 0.197 | 61.3 | 0.91 | > 2000
4 | A431 (skin, adherent) |  |  | 0.515 | 3.43 |  |  | 0.966 | > 2000
5 | ARH-77 (myeloma, suspension) |  |  | 0.503 | 3.19 | 0.968 | > 10000 | 0.977 | > 2000
6 | BC-1 (B-cell lymphoma, suspension) | 0.848 | 117 | 0.571 | 4.72 | 0.764 | 3120 | 0.987 | > 2000
7 | BT-474 (breast, adherent) |  |  | 0.95 | > 50 | 0.946 | > 10000 | 0.983 | > 2000
8 | C-4-I (cervix, adherent) | 0.986 | > 200 | 0.655 | 8.74 |  |  | 0.857 | 1850
9 | CA46 (Burkitt lymphoma, suspension) | 0.836 | 147 | 0.898 | > 50 | 0.866 | > 10000 | 0.984 | > 2000
10 | CFPAC-1 (pancreas, adherent) | 0.896 | > 200 | 0.52 | 3.56 | 0.845 | 8830 | 0.958 | > 2000
11 | CL-11 (large intestine, adherent) | 0.919 | > 200 | 0.847 | 44.1 | 0.914 | > 10000 | 0.958 | > 2000
12 | CTV-1 (acute myeloid leukaemia, suspension) | 0.734 | 49.2 | 0.331 | 1.17 | 0.959 | > 10000 | 0.941 | > 2000
13 | Calu-6 (lung adenocarcinoma, adherent) | 0.909 | > 200 | 0.709 | 13.3 | 0.682 | 2190 | 0.984 | > 2000
14 | Capan-2 (pancreas, adherent) | 0.95 | > 200 | 0.954 | > 50 | 0.961 | > 10000 | 0.985 | > 2000
15 | DG-75 (Burkitt lymphoma, suspension) | 0.497 | 12.3 | 0.895 | > 50 | 0.905 | > 10000 | 0.934 | > 2000
16 | DOHH-2 (B-cell lymphoma, suspension) | 0.622 | 26.9 |  |  |  |  | 0.955 | > 2000
17 | DU-145 (prostate, adherent) | 0.918 | > 200 | 0.588 | 5.59 | 0.913 | > 10000 |  | 
18 | Daudi (Burkitt lymphoma, suspension) |  |  | 0.641 | 7.23 | 0.921 | > 10000 | 0.991 | > 2000
19 | DoTc2-4510 (cervix, adherent) | 0.985 | > 200 | 0.667 | 8.89 | 0.978 | > 10000 | 0.97 | > 2000
20 | EKVX (lung adenocarcinoma, adherent) | 0.832 | > 200 | 0.889 | > 50 | 0.965 | > 10000 |  | 
21 | FADU (head and neck, adherent) |  |  | 0.277 | 0.748 |  |  | 0.943 | > 2000
22 | HCC1500 (breast, adherent) |  |  | 0.798 | 24.8 | 0.985 | > 10000 | 0.975 | > 2000
23 | HCC1937 (breast, adherent) |  |  | 0.851 | 47.8 | 0.983 | > 10000 | 0.906 | > 2000
24 | HCT-15 (large intestine, adherent) | 0.679 | 40.9 | 0.911 | > 50 | 0.944 | > 10000 |  | 
25 | HOP-62 (lung adenocarcinoma, adherent) | 0.967 | > 200 | 0.402 | 1.68 | 0.982 | > 10000 |  | 

Row | Cell Line | AUC [1] | IC50 [1] [nM] | AUC [2] | IC50 [2] [nM] | AUC [3] | IC50 [3] [nM] | AUC [4] | IC50 [4] [nM]
26 | HOP-92 (large cell lung carcinoma, adherent) | 0.984 | > 200 | 0.594 | 5.92 | 0.955 | > 10000 |  | 
27 | HuH-7 (liver, adherent) | 0.959 | > 200 | 0.793 | 22.8 | 0.854 | 7840 |  | 
28 | KM12 (large intestine, adherent) | 0.818 | 125 | 0.953 | > 50 | 0.94 | > 10000 |  | 
29 | KU812 (chronic myeloid leukaemia, suspension) | 0.827 | 108 | 0.797 | 21.3 | 0.669 | 1760 |  | 
30 | LoVo (large intestine, adherent) | 0.981 | > 200 | 0.81 | 26.7 | 0.832 | 6520 |  | 
31 | MDA-MB-436 (breast, adherent) |  |  | 0.581 | 5.5 | 0.965 | > 10000 | 0.977 | > 2000
32 | MDA-MB-453 (breast, adherent) |  |  | 0.706 | 12.8 | 0.975 | > 10000 | 0.982 | > 2000
33 | MEG-01 (chronic myeloid leukaemia, suspension) | 0.647 | 31.1 | 0.898 | > 50 | 0.618 | 1290 |  | 
34 | MM1S (myeloma, suspension) | 0.64 | 29.7 |  |  |  |  | 0.988 | > 2000
35 | NCI-H82 (small cell lung carcinoma, suspension) | 0.619 | 26.1 | 0.945 | > 50 | 0.982 | > 10000 |  | 
36 | NCI-H226 (lung squamous cell carcinoma, adherent) | 0.977 | > 200 | 0.855 | 43 | 0.966 | > 10000 |  | 
37 | NCI-H322M (lung adenocarcinoma, suspension) | 0.942 | > 200 | 0.968 | > 50 | 0.974 | > 10000 |  | 
38 | NCI-H358 (lung adenocarcinoma, adherent) |  |  | 0.764 | 20.1 |  |  | 0.954 | > 2000
39 | NCI-H441 (lung adenocarcinoma, adherent) |  |  | 0.673 | 11.6 |  |  | 0.98 | > 2000
40 | NCI-H460 (large cell lung carcinoma, adherent) | 0.737 | 54.8 | 0.623 | 6.59 | 0.976 | > 10000 |  | 
41 | NCI-H1417 (small cell lung carcinoma, suspension) |  |  | 0.255 | 0.534 | 0.571 | 1020 | 0.888 | > 2000
42 | NCI-H1876 (small cell lung carcinoma, adherent) |  |  | 0.237 | 0.538 | 0.983 | > 10000 | 0.93 | > 2000
43 | NCI-H1963 (small cell lung carcinoma, suspension) | 0.847 | 120 |  |  |  |  | 0.925 | > 2000
44 | NCI-H2122 (lung adenocarcinoma, adherent) |  |  | 0.617 | 6.41 |  |  | 0.959 | > 2000
45 | NOMO-1 (acute myeloid leukaemia, suspension) |  |  | 0.717 | 14.2 | 0.874 | > 10000 | 0.844 | 1720
46 | OCI-AML2 (acute myeloid leukaemia, suspension) |  |  | 0.54 | 3.9 | 0.836 | 4400 | 0.982 | > 2000
47 | OCI-AML3 (acute myeloid leukaemia, suspension) | 0.755 | 59.1 | 0.633 | 6.86 | 0.881 | 7930 |  | 
48 | OV-90 (ovary, adherent) |  |  | 0.814 | 37.2 | 0.124 | < 39.1 | 0.939 | > 2000
49 | OVCAR-4 (ovary, adherent) | 0.955 | > 200 | 0.819 | 49.3 | 0.962 | > 10000 |  | 
50 | OVCAR-5 (ovary, adherent) | 0.981 | > 200 | 0.757 | 20.4 | 0.931 | > 10000 |  | 

Row | Cell Line | AUC [1] | IC50 [1] [nM] | AUC [2] | IC50 [2] [nM] | AUC [3] | IC50 [3] [nM] | AUC [4] | IC50 [4] [nM]
51 | PA-1 (ovary, adherent) | 0.991 | > 200 |  |  |  |  | 0.923 | 1970
52 | RKO (large intestine, adherent) |  |  | 0.526 | 3.65 | 0.667 | 1750 | 0.988 | > 2000
53 | RL (B-cell lymphoma, suspension) |  |  | 0.931 | > 50 | 0.94 | > 10000 | 0.963 | > 2000
54 | RPMI-6666 (Hodgkin lymphoma, suspension) | 0.928 | > 200 | 0.569 | 5.03 |  |  | 0.981 | > 2000
55 | RPMI-8226 (myeloma, suspension) | 0.608 | 23.7 | 0.897 | 48 | 0.952 | > 10000 |  | 
56 | Raji (Burkitt lymphoma, suspension) |  |  | 0.47 | 2.6 | 0.982 | > 10000 | 0.988 | > 2000
57 | SF268 (glioma, adherent) | 0.955 | > 200 | 0.465 | 2.49 | 0.953 | > 10000 |  | 
58 | SF295 (glioma, adherent) | 0.977 | > 200 | 0.718 | 13.7 | 0.959 | > 10000 |  | 
59 | SF539 (glioma, adherent) | 0.988 | > 200 | 0.618 | 6.38 | 0.985 | > 10000 |  | 
60 | SK-MEL-1 (melanoma, suspension) | 0.993 | > 200 | 0.984 | > 50 |  |  | 0.993 | > 2000
61 | SK-MEL-2 (melanoma, adherent) | 0.985 | > 200 | 0.781 | 21.5 | 0.708 | 2470 |  | 
62 | SK-MEL-5 (melanoma, adherent) | 0.98 | > 200 | 0.734 | 17.2 | 0.366 | 245 |  | 
63 | SK-OV-3 (ovary, adherent) | 0.969 | > 200 | 0.715 | 15 | 0.884 | > 10000 |  | 
64 | SNB75 (glioma, adherent) | 0.979 | > 200 | 0.745 | 22.3 | 0.974 | > 10000 |  | 
65 | SUP-B15 (lymphoblastic leukaemia, suspension) | 0.772 | 73.9 |  |  |  |  | 0.698 | 437
66 | SW48 (large intestine, adherent) | 0.986 | > 200 | 0.516 | 3.46 | 0.957 | > 10000 |  | 
67 | SW620 (large intestine, adherent) | 0.982 | > 200 | 0.476 | 2.7 | 0.951 | > 10000 |  | 
68 | T47D (breast, adherent) | 0.977 | > 200 | 0.817 | > 50 | 0.932 | > 10000 |  | 
69 | TK10 (kidney, adherent) | 0.981 | > 200 | 0.826 | 39.2 | 0.878 | > 10000 |  | 
70 | U251 (glioma, adherent) | 0.987 | > 200 | 0.255 | 0.648 | 0.971 | > 10000 |  | 
71 | U-87-MG (glioma, adherent) | 0.983 | > 200 | 0.33 | 0.962 | 0.937 | > 10000 |  | 
72 | UACC-62 (melanoma, adherent) | 0.986 | > 200 | 0.546 | 4.16 | 0.102 | < 39.1 |  | 
73 | UACC-257 (melanoma, adherent) | 0.982 | > 200 | 0.85 | > 50 | 0.146 | < 39.1 |  | 
